# Data taken from the supplement of paper PMC11417369.
# ± gives the standard deviation of the averaged measurements. The list shows a part of the results.
# Test system: PfAP2-G AP2 domain (GST-tagged)
# Experiment: gcPBM binding intensity (ln(normalized median fluorescence intensity)); higher = stronger DNA binding
# Method in brief: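 Probes on an Agilent 4 × 180k array were primer-extended, double-stranded and 36 bp long, taken from intergenic genomic regions, with negative controls added. GST-tagged P. falciparum DNA-binding domains from E. coli, about 25 μg on average, were applied to the array for 1 h in 1× PBS containing 1% milk, 0.2 mg/ml BSA, 0.5% salmon testes DNA and 0.03% Triton X-100. Binding intensity, obtained after Alexa488 anti-GST antibody detection and a 488 nm scan, is the highest Masliner-normalised natural-log median intensity across replicate spots of either probe orientation.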
row,Sequence,gcPBM binding intensity (ln)
1,AAATCACATAAAAATAGTACTTTTTTTTTTTTTTTT [XGTACX_site2696],11.2 ± 0.7
2,TGTTTTTATCCTTATGGTACAGTATAATACTTACAG [XGTACX_site6381],10.9 ± 0.57
3,AAATTTGCTTTACCAGTGCAAAAAAAAAAAAAAAAA,9.96 ± 0.53
4,TATTTTGTTCTTTCCACACACAAATACATATATTGT [CACACA_site4071],10.3 ± 0.24
5,TAATACATACACACATGTACATACAGAAATAAATAA [XGTACX_site3245],11.2 ± 0.81
6,AATTATTAAATATGTACACACGTACATTTTATAAAT [CACACA_site5341],11.6 ± 1
7,AGTACATTATAGAATACACACCTATATATATATATA [CACACA_site4447],10.3 ± 0.25
8,TAAAATTAATAAAATATTTTCACTTAATATATATAA [CACACA_negctrl_site1550],9.55 ± 0.22
9,ATGTTGTACAAACACACACACAAAAAAAAAATAAAA [CACACA_site2406],11.2 ± 1.2
10,ATATATATATGTGGATGTACATATATCTCTTATTAT [XGTACX_site1748],11 ± 0.49
11,AATATAAAAATGTTTACACACACACGGAAATATATT [CACACA_site7226],10.21 ± 0.092
12,CATATATATATTTTTTGTACATATATTTTTACATAT [XGTACX_site8419],11 ± 0.45
13,TTTTACATAAATTATAAATATATAAAATAAAAAAAA [CACACA_negctrl_site1499],9.72 ± 0.028
14,TTAATATTCCAGCTTTGTACATATATATATTATAAA [XGTACX_site7954],10.7 ± 0.47
15,TTAATGGAAAAATAGGCACACACACCGATATACATA [CACACA_site8356],10.24 ± 0.064
16,TGGCTTTCCCTGCCGGTGCATTAACATTTTTTACAT [GTGCAC_site9914],9.9 ± 0.16
17,AAAAAGAAGAAGAAATGTACGTAACTATATATTTAT [XGTACX_site4362],11.2 ± 0.66
18,TTTATTTTTGAAGTTGCACACACAAAAATAAAAAGT [CACACA_site8030],10.4 ± 0.47
19,CCTAAAGTGTAAAATTCACACACATATATATATATA [CACACA_site8385],10 ± 0.23
20,TTTATTTATAGGTATACACACTTTAATTAAAAGTTG [CACACA_site7232],10.8 ± 0.33
21,ATATGGGTGAACATATGTACATATATATATTGATAA [XGTACX_site8438],11.1 ± 0.52
22,TTGGTATATTATAAAAGTACACATAATAAAAAATTT [XGTACX_site7985],11.5 ± 0.93
23,AATTCAATTGAGCAAAATTCAAATAAATTAAAAAGA [XGTACX_negctrl_site71],9.725 ± 0.035

row,Sequence,gcPBM binding intensity (ln)
1,CAAAAATAATTTAGGTGTACAAATTTGACAAAAAAA [XGTACX_site188],11.7 ± 0.59
2,ATGAAACACTCCATAGTGCAAAATATATATTATATT,9.95 ± 0.014
3,CTATTTTTCCTGAAATGTACAAGAATTTTATTTGAT [XGTACX_site8867],10.8 ± 0.56
4,TGATAATATTATATATGTACATATATGTATATTTTT [XGTACX_site7193],11.1 ± 0.55
5,ATTTTTCATTCTGGACATGTTACCATTATATATATG [CACACA_negctrl_site61],10.7 ± 0.26
6,ATAACTATAATAATCATACACACCAAAGAGAATATT [CACACA_site6970],9.995 ± 0.049
7,ATTATTACTTTTTGAGTGCACATACACACAGACATA,10.7 ± 0.47
8,TTACATAATTTATGTACACACGCAAATACTTATAAT [CACACA_site4331],11.5 ± 0.81
9,ATTAAAAAAATATACGCACACAAAATGTAATAACAA [CACACA_site2439],10.4 ± 0.21
10,TAATTTGTTATGTATTGTACAAATAATATATGATAT [XGTACX_site1985],10.9 ± 0.63
11,TTTTGTTTAAAAAAAAAAAACAAAAAAAAGCAATTA [CACACA_negctrl_site314],9.82 ± 0.13
12,ACATTAACATTGTTGGTGCAAAATTAATATGTTTTT [GTGCAC_site9673],9.97 ± 0.16
13,AGTAGTCTGGAGAAGAGTACACAGTATCTGGTAGCT [XGTACX_site2042],11.5 ± 0.9
14,TATGTGAATATTGAGGTGCGGTTGTTAAAATTTATA [GTGCAC_site9915],10.2 ± 0.25
15,CAAACATATTAATGTACACACACCCACCCACAAACA [CACACA_site2752],11.4 ± 0.88
16,TTTTTTTCAATATTTGCACACGATTAAAATATTTAA [CACACA_site5266],10 ± 0.17
17,TATTATATATATATATGTACATATTGTATGTTATAT [XGTACX_site5303],11.1 ± 0.56
18,TAATTATTATTAATAGTACACACTATGGCATTTCAA [CACACA_site2488],11.1 ± 0.84
19,TTAAATATTTTTTATACACACATTTCTTATTTAACT [CACACA_site229],9.9 ± 0.085
20,TTTTACTAAATATATACACACATTATGCATATATAT [CACACA_site3287],10.03 ± 0.078
21,ACCCACGTAAATTAAGCATGCCTTCCGTTATATTTA [TGCATGCA_site365],10 ± 0.014
22,TATATGTAATATTATACATGCATACATAATATATAT [TGCATGCA_site558],9.89 ± 0.2
23,TATGTGAATATAATCACACACAATACGGAAAGAGAC [CACACA_site7311],10.7 ± 0.39

row,Sequence,gcPBM binding intensity (ln)
1,TTTTTTTTTTATAAGGCACACATGAATATTTATACA [CACACA_site1316],10.3 ± 0.38
2,CTGTGTAATTTAAATTGTACGTTTGAAAAAAATAAA [XGTACX_site5667],11.2 ± 0.77
3,AAAACACTTATGGATTGTACAATAAAAATTATATTA [XGTACX_site7042],10.9 ± 0.49
4,AATGTGATAATATACACACACGCATATATATATATA [CACACA_site323],10.5 ± 0.81
5,TTTTAAAGAAAAAAATGTACAAAATTTTTATTTTAA [XGTACX_site1496],10.6 ± 0.35
6,GTATTATCTGCTTTTTGTACACATATATTTAAAAAA [XGTACX_site7603],11.4 ± 0.95
7,ACATTCACAAAATTTTGTACACATATATATATATAT [XGTACX_site3518],11.3 ± 0.87
8,TTCTGTGTGTATTGGCGTACAATTATTTTGCCTACA [XGTACX_site205],11.7 ± 0.83
9,TATATGTCAATATCTACACACATATAGGTAATTATT [CACACA_site7475],10.01 ± 0.057
10,TATACTATACAACACATACACACAAAAAAAAAAAAA [CACACA_site537],9.96 ± 0.52
11,CGATTTTTTAAGTTTGTGCACTTAAAAACTATAACA,10.5 ± 0.4
12,CCATTTGATAATAATGCACACCACATATATTTATAT [CACACA_site9002],10.14 ± 0.099
13,AAAAGGAATTATAGGAAATAAATATATACAAATATA [TGCATGCA_negctrl_site528],9.63 ± 0.2
14,TAAATCATGGGATAAGCATGCGCGCACATGTTTGTT [TGCATGCA_site768],10.2 ± 0.11
15,TTTATTTATTAAGAATGTACATGTATTTGTTAAATA [XGTACX_site4465],11.2 ± 0.61
16,AATTATGCATTTGTCACACATATATATTACACTTGC [CACACA_site5324],10.035 ± 0.007
17,AAAAAAAAAAAAAAATGTACATTATACACATTATAT [XGTACX_site6824],11.1 ± 0.61
18,TAGCCAAAATATAATTTACACACTTATTAAATAATT [CACACA_site7963],9.69 ± 0.099
19,AAGAAAAATGTCATATGATATCATATATTTTATAAT [TGCATGCA_negctrl_site296],9.76 ± 0.014
20,AAATAAATATATATATGTACATACAAATACACGGTA [XGTACX_site8510],11.2 ± 0.8
21,ATTTTCCCTTGTTTTACACACGTGCTGATATGAGAT [CACACA_site2164],10.3 ± 0.14
22,TTGTACTACAATCCTTTATTTATTTAAACCTGTATG [CACACA_negctrl_site428],11.6 ± 1.1
23,AGGAGGATATTACACAGTACCCAGGAAATCTACGGA [XGTACX_site4878],10.8 ± 0.47

row,Sequence,gcPBM binding intensity (ln)
1,TTTCAATGCATAAAAGTGCGCAATAATTTAAAGATC,10.4 ± 0.32
2,TATATAAATAGACACACACACACATATAAATAAATA [CACACA_site7855],10.2 ± 0.3
3,AAAAAAAAATAAAATAAAATAAAATAAAATAATATA [CACACA_negctrl_site1798],9.29 ± 0.39
4,AAACAAATGTACAAAGTGCATATTTTTTTCAAAAGG,10.6 ± 0.57
5,ACATATGTATAATAATGTACGCATTAAATATAATTA [XGTACX_site7851],11.4 ± 0.9
6,GACCAATACTTTAAAAGTACAAACCTTATTTTATTT [XGTACX_site2718],11.2 ± 0.7
7,ATAATATATATTAATACACACACACCGATATATATA [CACACA_site9261],10.2 ± 0.22
8,TTCAACATAATATGCACACAAAAATTATGGAACGAA [CACACA_site2111],10.2 ± 0.18
9,AAAAAAAAAAAAATTGCACACAAAAAAAAAAAAAAA [CACACA_site8644],10.2 ± 0.4
10,AAAAAAAACAAATACACACGCACACCGAAAAAAAAA [CACACA_site803],10.4 ± 0.3
11,AGAGAGAGAAATACAAGTACATGTGAAACCAATCTA [XGTACX_site2767],11.2 ± 0.63
12,AAAAAATAAAAAAAAACACACACATACAAGCATATA [CACACA_site8451],9.885 ± 0.007
13,TTAATGCACTTTATTACACACACTAGTTCATTACCT [CACACA_site2294],10.3 ± 0.16
14,CAGACAATAAAGAAGTGTACACATATATCAATAAAA [XGTACX_site4515],11.6 ± 0.76
15,AAAAAAAAAAAACACACACACACACCCACAAAATAT [CACACA_site1447],10.1 ± 0.28
16,AAAAAAAAATACCTACGTACATATATATATTATATA [XGTACX_site3983],11.2 ± 0.73
17,TATATTATAATTTGAAGTACATTTTAAATTAACTAA [XGTACX_site1013],11.1 ± 1
18,ATATAATAGTATATATGTACATATATTTAAATACTA [XGTACX_site1135],11.2 ± 0.49
19,TAACATAGCAATGTTTCACACACAAGAAAAAATACA [CACACA_site8747],10.05 ± 0.049
20,TGCAGTCTGGAGAAAAGTACATAGTATCTGGTAGCT [XGTACX_site2547],11.3 ± 0.76
21,TAATTAAGCATAAATATAATTTTATATTTTATTTCC [XGTACX_negctrl_site321],9.35 ± 0.11
